# Data from the supplement of paper PMC8728848.
# The other results are listed elsewhere or left out.
# B1: Glycodelin A (Homo sapiens), P09466 (protein)
# chain: MLCLLLTLGVALVCGVPAMDIPQTKQDLELPKLAGTWHSMAMATNNISLMATLKAPLRVHITSLLPTPEDNLEIVLHRWENNSCVEKKVLGEKTENPKKFKINYTVANEATLLDTDYDNFLFLCLQDTTTPIQSMMCQYLARVLVEDDEIMQGFIRAFRPLPRHLWYLLDLKQMEEPCRF
# Tests used:
# Test in all cases: glycan array binding signal (z-score within array); higher = stronger binding
# Conditions in all cases: glycan notation: IUPAC condensed, linker removed
# GlcNAc(b1-6)GalNAc = target: GlcNAc(b1-6)GalNAc
# Outline: (§1)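 Glycan array data were curated from 3228 arrays in the Consortium for Functional Glycomics database and kept only where the protein sequence was available. Glycan names were converted to IUPAC-condensed notation, and columns mapping to the same glycan were averaged. The binding signal is a within-array Z-score, averaged across arrays of the same protein sequence at different concentrations or buffers and across linkers. Negative Z-scores can be read as non-binding.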
# GlcNAc3Prop(b1-4)GlcNAc = target: GlcNAc3Prop(b1-4)GlcNAc
# Outline: as §1
# Kdn(a2-3)Gal(b1-3)GlcNAc = target: Kdn(a2-3)Gal(b1-3)GlcNAc
# Outline: as §1
# Kdn(a2-3)Gal(b1-4)GlcNAc = target: Kdn(a2-3)Gal(b1-4)GlcNAc
# Outline: as §1
# [1] = target: Man(a1-2)Man(a1-2)Man(a1-3)Man
# Outline: as §1
# [2] = target: Man(a1-2)Man(a1-2)Man(a1-6)[Man(a1-3)]Man
# Outline: as §1
# Man(a1-2)Man(a1-3)Man = target: Man(a1-2)Man(a1-3)Man
# Outline: as §1
# [3] = target: Man(a1-2)Man(a1-3)[Man(a1-2)Man(a1-6)]Man
# Outline: as §1
# [4] = target: Man(a1-2)Man(a1-3)[Man(a1-2)Man(a1-6)]Man(a1-6)[Man(a1-2)Man(a1-2)Man(a1-3)]Man
# Outline: as §1
# [5] = target: Man(a1-2)Man(a1-3)[Man(a1-2)Man(a1-6)]Man(a1-6)[Man(a1-2)Man(a1-2)Man(a1-3)]Man(b1-4)GlcNAc(b1-4)GlcNAc
# Outline: as §1
# [6] = target: Man(a1-2)Man(a1-3)[Man(a1-6)]Man(a1-6)[Man(a1-2)Man(a1-3)]Man(b1-4)GlcNAc(b1-4)GlcNAc
# Outline: as §1
# [7] = target: Man(a1-2)Man(a1-6)[Man(a1-3)]Man(a1-6)[Man(a1-2)Man(a1-2)Man(a1-3)]Man
# Outline: as §1
# [8] = target: Man(a1-2)Man(a1-6)[Man(a1-3)]Man(a1-6)[Man(a1-2)Man(a1-2)Man(a1-3)]Man(b1-4)GlcNAc(b1-4)GlcNAc
# Outline: as §1
# Man(a1-3)[Man(a1-6)]Man = target: Man(a1-3)[Man(a1-6)]Man
# Outline: as §1
# [9] = target: Man(a1-3)[Man(a1-6)]Man(a1-6)[Man(a1-2)Man(a1-3)]Man(b1-4)GlcNAc(b1-4)GlcNAc
# Outline: as §1
# [10] = target: Man(a1-3)[Man(a1-6)]Man(a1-6)[Man(a1-3)]Man
# Outline: as §1
# [11] = target: Man(a1-3)[Man(a1-6)]Man(a1-6)[Man(a1-3)]Man(b1-4)GlcNAc(b1-4)GlcNAc
# Outline: as §1
# [12] = target: Man(a1-3)[Man(a1-6)]Man(b1-4)GlcNAc(b1-4)GlcNAc
# Outline: as §1
# Man(a1-6)Man = target: Man(a1-6)Man
# Outline: as §1
# Man(b1-4)GlcNAc = target: Man(b1-4)GlcNAc
# Outline: as §1
# Neu5Ac(a2-3)Gal = target: Neu5Ac(a2-3)Gal
# Outline: as §1
# [13] = target: Neu5Ac(a2-3)Gal(b1-3)GalNAc
# Outline: as §1
# [14] = target: Neu5Ac(a2-3)Gal(b1-3)GalNAc(b1-3)Gal(a1-4)Gal(b1-4)Glc
# Outline: as §1
# [15] = target: Neu5Ac(a2-3)Gal(b1-3)GalNAc(b1-3)Gal(b1-4)GlcNAc
# Outline: as §1
# [16] = target: Neu5Ac(a2-3)Gal(b1-3)GalNAc(b1-4)[Neu5Ac(a2-3)]Gal(b1-4)Glc
# Outline: as §1
# [17] = target: Neu5Ac(a2-3)Gal(b1-3)GalNAc6S
# Outline: as §1
# [18] = target: Neu5Ac(a2-3)Gal(b1-3)GlcNAc
# Outline: as §1
# [19] = target: Neu5Ac(a2-3)Gal(b1-3)GlcNAc(b1-3)Gal(b1-3)GlcNAc
# Outline: as §1
# [20] = target: Neu5Ac(a2-3)Gal(b1-3)GlcNAc6S
# Outline: as §1
# [21] = target: Neu5Ac(a2-3)Gal(b1-3)[Fuc(a1-4)]GlcNAc
# Outline: as §1
# [22] = target: Neu5Ac(a2-3)Gal(b1-3)[Fuc(a1-4)]GlcNAc(b1-3)Gal(b1-4)[Fuc(a1-3)]GlcNAc
# Outline: as §1
# [23] = target: Neu5Ac(a2-3)Gal(b1-3)[Neu5Ac(a2-3)Gal(b1-4)]GlcNAc
# Outline: as §1
# [24] = target: Neu5Ac(a2-3)Gal(b1-3)[Neu5Ac(a2-6)]GalNAc
# Outline: as §1
# Neu5Ac(a2-3)Gal(b1-4)Glc = target: Neu5Ac(a2-3)Gal(b1-4)Glc
# Outline: as §1
# [25] = target: Neu5Ac(a2-3)Gal(b1-4)GlcNAc
# Outline: as §1
# [26] = target: Neu5Ac(a2-3)Gal(b1-4)GlcNAc(b1-2)Man(a1-3)[GlcNAc(b1-2)Man(b1-4)GlcNAc(b1-2)Man(a1-6)]Man(b1-4)GlcNAc(b1-4)GlcNAc
# Outline: as §1
# [27] = target: Neu5Ac(a2-3)Gal(b1-4)GlcNAc(b1-2)Man(a1-3)[Neu5Ac(a2-6)Gal(b1-4)GlcNAc(b1-2)Man(a1-6)]Man(b1-4)GlcNAc(b1-4)GlcNAc
# Outline: as §1
# [28] = target: Neu5Ac(a2-3)Gal(b1-4)GlcNAc(b1-3)Gal(b1-3)GlcNAc
# Outline: as §1
# [29] = target: Neu5Ac(a2-3)Gal(b1-4)GlcNAc(b1-3)Gal(b1-4)GlcNAc
# Outline: as §1
# [30] = target: Neu5Ac(a2-3)Gal(b1-4)GlcNAc(b1-3)Gal(b1-4)GlcNAc(b1-3)Gal(b1-4)GlcNAc
# Outline: as §1
# [31] = target: Neu5Ac(a2-3)Gal(b1-4)GlcNAc(b1-3)Gal(b1-4)[Fuc(a1-3)]GlcNAc
# Outline: as §1
# [32] = target: Neu5Ac(a2-3)Gal(b1-4)GlcNAc(b1-6)[Gal(b1-3)]GalNAc
# Outline: as §1
# [33] = target: Neu5Ac(a2-3)Gal(b1-4)GlcNAc(b1-6)[Neu5Ac(a2-3)Gal(b1-3)]GalNAc
# Outline: as §1
# [34] = target: Neu5Ac(a2-3)Gal(b1-4)GlcNAc6S
# Outline: as §1
binder,measurement,setting,value
B1,glycan array binding signal (z-score),GlcNAc(b1-6)GalNAc,-0.36
same,glycan array binding signal (z-score),GlcNAc3Prop(b1-4)GlcNAc,-0.448
same,glycan array binding signal (z-score),Kdn(a2-3)Gal(b1-3)GlcNAc,-0.416
same,glycan array binding signal (z-score),Kdn(a2-3)Gal(b1-4)GlcNAc,-0.433
same,glycan array binding signal (z-score),[1],-0.466
same,glycan array binding signal (z-score),[2],-0.508
same,glycan array binding signal (z-score),Man(a1-2)Man(a1-3)Man,-0.309
same,glycan array binding signal (z-score),[3],-0.43
same,glycan array binding signal (z-score),[4],-0.279
same,glycan array binding signal (z-score),[5],2.59
same,glycan array binding signal (z-score),[6],-0.39
same,glycan array binding signal (z-score),[7],-0.427
same,glycan array binding signal (z-score),[8],2.2
same,glycan array binding signal (z-score),Man(a1-3)[Man(a1-6)]Man,-0.311
same,glycan array binding signal (z-score),[9],-0.274
same,glycan array binding signal (z-score),[10],-0.048
same,glycan array binding signal (z-score),[11],-0.154
same,glycan array binding signal (z-score),[12],-0.406
same,glycan array binding signal (z-score),Man(a1-6)Man,-0.343
same,glycan array binding signal (z-score),Man(b1-4)GlcNAc,-0.404
same,glycan array binding signal (z-score),Neu5Ac(a2-3)Gal,-0.131
same,glycan array binding signal (z-score),[13],0.641
same,glycan array binding signal (z-score),[14],-0.441
same,glycan array binding signal (z-score),[15],-0.477
same,glycan array binding signal (z-score),[16],-0.406
same,glycan array binding signal (z-score),[17],-0.419
same,glycan array binding signal (z-score),[18],-0.399
same,glycan array binding signal (z-score),[19],-0.434
same,glycan array binding signal (z-score),[20],1.21
same,glycan array binding signal (z-score),[21],-0.43
same,glycan array binding signal (z-score),[22],-0.46
same,glycan array binding signal (z-score),[23],-0.439
same,glycan array binding signal (z-score),[24],1.76
same,glycan array binding signal (z-score),Neu5Ac(a2-3)Gal(b1-4)Glc,-0.347
same,glycan array binding signal (z-score),[25],-0.372
same,glycan array binding signal (z-score),[26],-0.448
same,glycan array binding signal (z-score),[27],-0.381
same,glycan array binding signal (z-score),[28],-0.449
same,glycan array binding signal (z-score),[29],-0.355
same,glycan array binding signal (z-score),[30],-0.385
same,glycan array binding signal (z-score),[31],-0.491
same,glycan array binding signal (z-score),[32],0.897
same,glycan array binding signal (z-score),[33],-0.47
same,glycan array binding signal (z-score),[34],-0.489
